In all, about 39,000 compounds went through this assay and about 220 (0.56%) showed activity. This is one part of the list.
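Note: static incubation at 37 °C against the wild-type strain, values averaged over two biological replicates.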

The subject of this assay is Escherichia coli K-12 BW25113. In words: relative growth (OD600 normalised to plate interquartile mean) (fraction); higher = less growth inhibition, active = 0.2 or less. The note with it: 50 µM; LB; incubation time: overnight (16-24 h).
As for `CC(C)NC(=O)N(C)C[C@H]1Oc2c(NS(=O)(=O)c3cn(C)cn3)cccc2C(=O)N([C@H](C)CO)C[C@H]1C`, the relative growth was inactive: 0.992.

Regarding `Cc1cccc(C)c1NC(=O)[C@@H](C)N`, the relative growth was inactive: 0.973.

For the molecule `CCCC(=O)Nc1ccc2c(c1)OC[C@@H](C)N(Cc1ccc(-c3ccccn3)cc1)C[C@H](C)[C@H](OC)CN(C)C2=O`, the relative growth is inactive: 0.994.

On to `Cc1cc(C(=O)Nc2cccc3c2O[C@@H](CN(C)Cc2ccc(C(=O)O)cc2)[C@@H](C)CN([C@H](C)CO)C3=O)n(C)n1`, for which the relative growth is inactive: 0.989.

Regarding `C[C@H]1CN([C@@H](C)CO)S(=O)(=O)c2ccc(C#CC3CC3)cc2O[C@@H]1CN(C)Cc1ccc(F)cc1`, the relative growth was inactive: 1.03.

Take `O=C1O[C@H](CO)[C@@H](O)[C@H](O)[C@H]1O`: the relative growth is inactive: 1.01.

Consider `CC(C)N1C[C@H](CN(C)Cc2ccc(Oc3ccccc3)cc2)Oc2c(NC(=O)c3ccncc3)cccc2C1=O`, for which the relative growth was inactive: 1.03.

For the molecule `C[C@@H]1CCCCO[C@@H](CN(C)C(=O)CCC(F)(F)F)[C@H](C)CN([C@H](C)CO)C(=O)c2cc(NC(=O)NC3CCCCC3)ccc2O1`, the relative growth is inactive: 1.03.

`C[C@@H]1CN([C@@H](C)CO)S(=O)(=O)c2ccc(C#Cc3ccncc3)cc2O[C@H]1CN(C)C(=O)C1CCOCC1`: the relative growth was inactive: 0.999.

As to `CO[C@H]1CN(C)C(=O)c2ccc(NS(=O)(=O)c3cn(C)cn3)cc2OC[C@@H](C)N(CCC(F)(F)F)C[C@@H]1C`, the relative growth was inactive: 0.944.

In the case of `C[C@H]1CN([C@@H](C)CO)S(=O)(=O)c2ccc(C#CCN(C)C)cc2O[C@@H]1CN(C)S(=O)(=O)c1cccc(F)c1`, the relative growth was inactive: 1.

Consider `COC[C@@H](O)CNc1ncnc2c1CCNCC2`, for which the relative growth is inactive: 0.979.

For the molecule `C/C(=N\N)c1ccc2ccccc2c1`, the relative growth was inactive: 1.03.

`CN(C)CCCCNC(=O)[C@H]1C[C@H]2C(=O)N[C@@H](CCCCN(C)C)C(=O)N2[C@H]1c1cccc(OCCO)c1`: the relative growth was inactive: 0.961.

Take `C[C@H]1CN([C@@H](C)CO)C(=O)c2c(c3ccccc3n2C)-c2ccccc2CO[C@@H]1CN(C)S(=O)(=O)c1ccc(C(F)(F)F)cc1`: the relative growth was inactive: 1.

For the molecule `C[C@@H]1CN([C@H](C)CO)C(=O)CCCn2nncc2CO[C@H]1CN(C)S(C)(=O)=O`, the relative growth was inactive: 0.979.

As to `Cc1noc(C)c1NC(=O)Nc1ccc2c(c1)C(=O)N([C@@H](C)CO)C[C@H](C)[C@@H](CN(C)Cc1ccc(-c3ccccc3)cc1)O2`, the relative growth is inactive: 0.997.

On to `Cc1ccc(S(=O)(=O)N(C)C[C@H]2Oc3c(NC(=O)Nc4ccc(C(F)(F)F)cc4)cccc3C(=O)N([C@H](C)CO)C[C@H]2C)cc1`, for which the relative growth is inactive: 0.883.

In the case of `C[C@H](CO)N1C[C@H](C)[C@@H](CN(C)S(=O)(=O)c2ccc(F)cc2)OCCCC[C@H](C)Oc2ccc(NC(=O)CCC(F)(F)F)cc2C1=O`, the relative growth is inactive: 1.01.

Consider `CN(C)CCCNC(=O)C[C@@H]1C=C[C@H](NS(=O)(=O)c2ccccc2)[C@@H](CO)O1`, for which the relative growth was inactive: 0.985.

As for `Cc1ccc(S(=O)(=O)N(C)C[C@@H]2Oc3ccc(NS(=O)(=O)c4cccs4)cc3C(=O)N([C@@H](C)CO)C[C@@H]2C)cc1`, the relative growth was inactive: 1.01.

For `O=C(O)CSC(=S)N1CCOCC1`, the relative growth is inactive: 1.04.

`C[C@H](CO)N1C[C@H](C)[C@H](CN(C)C(=O)Nc2ccc(C(F)(F)F)cc2)Oc2ccc(NC(=O)Cc3ccccc3)cc2C1=O`: the relative growth is inactive: 0.977.

As for `O=C(O)c1ccc(OC[C@@H](O)CO[C@H](COc2ccc(C(=O)O)cc2)Cn2c3ccccc3c3ccccc32)cc1`, the relative growth was inactive: 0.996.

Consider `Cc1cc(F)ccc1S(=O)(=O)N1[C@@H]2CC[C@@H](C2)[C@H]1c1nc2cccc(OCc3ccc(F)cc3)c2[nH]1`, for which the relative growth was inactive: 0.994.

With `C[C@@H]1CCCCO[C@@H](CN(C)S(=O)(=O)c2ccccc2)[C@@H](C)CN([C@H](C)CO)C(=O)c2cc(NS(C)(=O)=O)ccc2O1`, the relative growth was inactive: 0.965.

`Cc1noc(C)c1NC(=O)Nc1ccc2c(c1)C(=O)N([C@H](C)CO)C[C@@H](C)[C@H](CN(C)S(=O)(=O)c1cn(C)cn1)O2`: the relative growth was inactive: 1.01.

As to `C[C@@H]1CN([C@@H](C)CO)C(=O)Cc2cc(NC(=O)Nc3ccccc3)ccc2O[C@@H]1CN(C)C(=O)Nc1ccc(C(F)(F)F)cc1`, the relative growth was inactive: 1.

Regarding `CC1(C)C=Cc2cc3ccc(=O)oc3cc2O1`, the relative growth was inactive: 1.02.

As for `Cc1ccccc1S(=O)(=O)N1C[C@@H](O)COC[C@@H]2O[C@H](CC(=O)N3CCC(Cc4ccccc4)CC3)CC[C@H]21`, the relative growth was inactive: 1.

As for `O=C(C[C@@H]1C=C[C@H](NC(=O)CN2CCOCC2)[C@@H](CO)O1)NCCc1ccncc1`, the relative growth was inactive: 0.995.

In the case of `CC(C)(C)OC(=O)CC[C@]12N=C(c3ccc(OCCCO)cc3)O[C@H]1c1ccccc1CN(Cc1ccccc1)C2=O`, the relative growth is inactive: 1.01.

For the molecule `O=c1ccc2ccccc2o1`, the relative growth is inactive: 1.12.

On to `C[C@H](CO)N1C[C@H](C)[C@H](CN(C)Cc2ccncc2)Oc2c(NC(=O)Nc3ccc(C(F)(F)F)cc3)cccc2C1=O`, for which the relative growth is inactive: 0.945.

As to `C[C@H](CO)N1C[C@H](C)[C@H](CN(C)S(=O)(=O)c2ccc(F)cc2)OCCCC[C@H](C)Oc2ccc(NC(=O)Nc3ccc(F)cc3)cc2C1=O`, the relative growth was inactive: 1.01.

As for `CC(C)NC(=O)N(C)C[C@H]1Oc2c(NC(=O)NC3CCCCC3)cccc2C(=O)N([C@H](C)CO)C[C@@H]1C`, the relative growth is inactive: 0.984.

Regarding `C[C@H](CO)N1C[C@H](C)[C@H](CN(C)C(=O)C2CC2)Oc2cc(-c3ccc(C(=O)N(C)C)cc3)ccc2S1(=O)=O`, the relative growth is inactive: 0.976.

For the molecule `C=CCNC(=O)[C@H]1[C@@H]2C(=O)O[C@@H](c3ccccc3)[C@@H](c3ccccc3)N2[C@@H](c2ccc(OCCO)cc2)[C@]12C(=O)Nc1ccc(C#Cc3ccc(OC)cc3)cc12`, the relative growth is inactive: 1.08.

For `C[C@@H]1CN([C@H](C)CO)C(=O)c2cc(NS(=O)(=O)c3ccc(Cl)cc3)ccc2O[C@@H](C)CCCCO[C@@H]1CN(C)S(=O)(=O)c1ccccc1`, the relative growth was inactive: 1.05.

Take `CC(C)NC(=O)Nc1ccc2c(c1)C(=O)N([C@@H](C)CO)C[C@H](C)[C@@H](CN(C)S(=O)(=O)c1cn(C)cn1)O2`: the relative growth was inactive: 0.98.

As for `C[C@H](CO)N1C[C@H](C)[C@@H](CN(C)C(=O)Nc2ccc3c(c2)OCO3)OCCCC[C@H](C)Oc2ccc(NC(=O)Nc3ccc(F)cc3)cc2C1=O`, the relative growth was inactive: 1.03.

As for `CC(C)NC(=O)Nc1ccc2c(c1)CC(=O)N([C@H](C)CO)C[C@@H](C)[C@@H](CN(C)Cc1ccc(-c3ccccc3)cc1)O2`, the relative growth is inactive: 0.973.

With `C[C@@H]1CN([C@H](C)CO)C(=O)c2cc(NC(=O)CCCN(C)C)ccc2O[C@H]1CN(C)S(=O)(=O)c1ccc(F)cc1`, the relative growth is inactive: 0.978.

With `C[C@@H]1CCCCO[C@@H](CN(C)S(=O)(=O)c2ccc(F)cc2)[C@H](C)CN([C@@H](C)CO)C(=O)c2cc(NC(=O)Nc3ccc(C(F)(F)F)cc3)ccc2O1`, the relative growth was inactive: 1.03.

On to `CN(C)Cc1ccc([C@@H](N)c2ccncc2)cc1`, for which the relative growth is inactive: 0.968.

`C[C@@H]1CN([C@@H](C)CO)S(=O)(=O)c2ccc(C#Cc3ccccc3)cc2O[C@@H]1CN(C)C(=O)CN(C)C`: the relative growth was inactive: 1.01.

On to `C[C@@H]1CN([C@H](C)CO)S(=O)(=O)c2ccc(-c3cccc(C#N)c3)cc2O[C@@H]1CN(C)C(=O)c1ccncc1`, for which the relative growth is inactive: 1.

For the molecule `C[C@H]1CCCCO[C@H](CN(C)S(=O)(=O)c2ccc(F)cc2)[C@@H](C)CN([C@@H](C)CO)C(=O)c2cc(NC(=O)c3ccccc3)ccc2O1`, the relative growth is inactive: 1.02.

Take `Cc1noc(C)c1S(=O)(=O)N(C)C[C@H]1Oc2ccc(N(C)C)cc2CC(=O)N([C@H](C)CO)C[C@H]1C`: the relative growth was inactive: 0.994.

Regarding `Cc1nccn1CCN`, the relative growth is inactive: 0.987.

As to `Clc1ccc(C(c2ccc(Cl)cc2)[n+]2ccn(C[C@@H](OCc3ccc(Cl)cc3Cl)c3ccc(Cl)cc3Cl)c2)cc1`, the relative growth is inactive: 0.421.

On to `CCN(CC)c1ccc(CN)cn1`, for which the relative growth is inactive: 0.975.

With `C[C@@H]1CCCCO[C@@H](CN(C)C(=O)Nc2ccc(F)cc2)[C@@H](C)CN([C@@H](C)CO)C(=O)c2cc(NC(=O)C3CCCCC3)ccc2O1`, the relative growth is inactive: 0.998.

For `C[C@@H]1CN([C@@H](C)CO)C(=O)Cc2cc(NC(=O)Cn3cnnn3)ccc2O[C@H]1CN(C)C(=O)NC1CCCCC1`, the relative growth was inactive: 0.995.

As to `Cc1noc(C)c1S(=O)(=O)Nc1cccc2c1O[C@H](CN(C)Cc1ccc(Oc3ccccc3)cc1)[C@H](C)CN([C@@H](C)CO)C2=O`, the relative growth is inactive: 0.972.

As for `C[C@@H]1CCCCO[C@H](CN(C)Cc2ccc3c(c2)OCO3)[C@H](C)CN([C@H](C)CO)C(=O)c2cc(NS(=O)(=O)c3ccc(F)cc3)ccc2O1`, the relative growth was inactive: 1.01.

As to `c1cc(-c2nnc(Cn3cncn3)[nH]2)ccn1`, the relative growth was inactive: 0.923.

Take `COc1ccc(S(=O)(=O)N(C)C[C@H]2Oc3ccc(NS(C)(=O)=O)cc3C(=O)N([C@H](C)CO)C[C@H]2C)cc1`: the relative growth is inactive: 0.999.

With `C[C@@H]1CN([C@H](C)CO)C(=O)c2cccc(NC(=O)C3CCOCC3)c2O[C@@H]1CN(C)S(=O)(=O)c1ccccc1`, the relative growth is inactive: 1.

On to `CCCNC(=O)C[C@H]1CC[C@H]2[C@@H](COc3ccc(NS(=O)(=O)c4ccccc4C)cc3C(=O)N2C)O1`, for which the relative growth is inactive: 1.

Turning to `CC(C)NC(=O)Nc1ccc2c(c1)C(=O)N([C@H](C)CO)C[C@H](C)[C@@H](CN(C)C(=O)Nc1ccc(F)cc1)OCCCC[C@H](C)O2`, the relative growth is inactive: 0.995.

Regarding `Cc1noc(C)c1NC(=O)N(C)C[C@@H]1Oc2ccc(NS(=O)(=O)c3ccccc3)cc2C(=O)N([C@H](C)CO)C[C@H]1C`, the relative growth was inactive: 0.995.

(Values after the supplement of paper PMC9446081.)
